Single values of this set are uncertain.
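Note: [psi-pin-] Saccharomyces cerevisiae expressing SupN fusions, induced by 100 µM Cu2SO4, selected 7 d at 30 °C without adenine and uracil, scored by deep sequencing of output versus input.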

A short description of one data set: amyloid nucleation score relative to library mode (yeast Sup35 reporter selection) (log enrichment difference); higher = more amyloid nucleation; sequences are the first 22 residues of the Bri2 peptide extended by up to 12 random residues. Particulars: random library (experiment): 1;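 active = nucleation score significantly above 0 at FDR 0.05; inactive = not significantly above 0 or absent from output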.
Sequence EASNCFAIRHFENKFAVETLICIGFGWPRRARRG displayed an amyloid nucleation score of 8.32.

Regarding EASNCFAIRHFENKFAVETLICIGGIHSSELWIR, the amyloid nucleation score came out at 5.42.

Regarding EASNCFAIRHFENKFAVETLICIGGQYERSGLWS, the amyloid nucleation score came out at 1.23.

As for EASNCFAIRHFENKFAVETLICIGHLWTSDYCRM, the amyloid nucleation score was found to be 3.82.

As to EASNCFAIRHFENKFAVETLICIGKFCSRCLRGS, the amyloid nucleation score entry was “inactive”.

EASNCFAIRHFENKFAVETLICIGMADRVRGAWR: the amyloid nucleation score was determined as 3.51.

EASNCFAIRHFENKFAVETLICIGMSMAYGVGQR: the amyloid nucleation score result is “inactive”.

For the sequence EASNCFAIRHFENKFAVETLICIGQRECR, the amyloid nucleation score result is “inactive”.

As for EASNCFAIRHFENKFAVETLICIGQRS, the amyloid nucleation score result was “inactive”.

EASNCFAIRHFENKFAVETLICIGTGEKLVWRAL gave an amyloid nucleation score of 3.54.

EASNCFAIRHFENKFAVETLICIGVRDSKTYFTT: the amyloid nucleation score entry is “inactive”.

Consider EASNCFAIRHFENKFAVETLICIGVSGPRRVRAH, for which the amyloid nucleation score result is “inactive”.

On to EASNCFAIRHFENKFAVETLICIHAYSHVRMLSE, for which the amyloid nucleation score entry is “inactive”.

In the case of EASNCFAIRHFENKFAVETLICIHLKV, the amyloid nucleation score result was “inactive”.

The sequence EASNCFAIRHFENKFAVETLICIHVRMFERYL yielded an amyloid nucleation score of 1.38.

EASNCFAIRHFENKFAVETLICIHVWCDPSHHVQ: the amyloid nucleation score entry was “inactive”.

For the sequence EASNCFAIRHFENKFAVETLICIIAFRKRTRSEP, the amyloid nucleation score entry was “inactive”.

EASNCFAIRHFENKFAVETLICIIFSGYMMRSPG: the amyloid nucleation score entry is “inactive”.

For EASNCFAIRHFENKFAVETLICIISMVFFGCLHS, the amyloid nucleation score entry was “inactive”.

The sequence EASNCFAIRHFENKFAVETLICIIYCELL gave an amyloid nucleation score of -0.146.

EASNCFAIRHFENKFAVETLICIKGSWK registered an amyloid nucleation score of 4.28.

With EASNCFAIRHFENKFAVETLICIKS, the amyloid nucleation score result is “inactive”.

In turn, EASNCFAIRHFENKFAVETLICIKVESGCMGSPG registered an amyloid nucleation score of 2.77.

As to EASNCFAIRHFENKFAVETLICIKVLREYTGGKS, the amyloid nucleation score entry was “inactive”.

The data set is the same for the next values; noted with them: random library (experiment): 2.
On to EASNCFAIRHFENKFAVETLICIFYCCV, for which the amyloid nucleation score is 5.2.

For EASNCFAIRHFENKFAVETLICIFYGTALSFFSL, the amyloid nucleation score result was “inactive”.

Turning to EASNCFAIRHFENKFAVETLICIGCA, the amyloid nucleation score was found to be 6.58.

As for EASNCFAIRHFENKFAVETLICIGGECLLYSR, the amyloid nucleation score was found to be 5.64.

EASNCFAIRHFENKFAVETLICIGLFVRM: the amyloid nucleation score entry is “inactive”.

Consider EASNCFAIRHFENKFAVETLICIGLGLKPADAFG, for which the amyloid nucleation score result is “inactive”.

On to EASNCFAIRHFENKFAVETLICIGLSYTFSHW, for which the amyloid nucleation score result was “inactive”.

In the case of EASNCFAIRHFENKFAVETLICIGSNILVMHASG, the amyloid nucleation score turned out to be 5.31.

In the case of EASNCFAIRHFENKFAVETLICIHFKCSISFLCG, the amyloid nucleation score result is “inactive”.

For the sequence EASNCFAIRHFENKFAVETLICIHFSPYGMGIMV, the amyloid nucleation score result was “inactive”.

Consider EASNCFAIRHFENKFAVETLICIHISLTYVANP, for which the amyloid nucleation score came out at 6.17.

For EASNCFAIRHFENKFAVETLICIHPISFIPAMWV, the amyloid nucleation score worked out at 4.3.

In the case of EASNCFAIRHFENKFAVETLICIHRCFIAFVFYQ, the amyloid nucleation score result is “inactive”.

As for EASNCFAIRHFENKFAVETLICIHTCILINFMVA, the amyloid nucleation score entry is “inactive”.

EASNCFAIRHFENKFAVETLICIHVDLPSRFGCE: the amyloid nucleation score is 4.55.

In turn, EASNCFAIRHFENKFAVETLICIHWFGTVICPSS displayed an amyloid nucleation score of -0.191.

Consider EASNCFAIRHFENKFAVETLICIIFCTGSSRSLG, for which the amyloid nucleation score entry is “inactive”.

Consider EASNCFAIRHFENKFAVETLICIIFIFGDRECWF, for which the amyloid nucleation score entry is “inactive”.

With EASNCFAIRHFENKFAVETLICIIGWF, the amyloid nucleation score result is “inactive”.

For EASNCFAIRHFENKFAVETLICIIHMF, the amyloid nucleation score worked out at 4.37.

For EASNCFAIRHFENKFAVETLICIIL, the amyloid nucleation score was 8.2.

For EASNCFAIRHFENKFAVETLICIILIRLIDSIDR, the amyloid nucleation score was determined as 3.27.

Turning to EASNCFAIRHFENKFAVETLICIILIYRGNRMCT, the amyloid nucleation score entry was “inactive”.

The sequence EASNCFAIRHFENKFAVETLICIIMNVRFDGAN yielded an amyloid nucleation score of 2.02.

Regarding EASNCFAIRHFENKFAVETLICIIMRGK, the amyloid nucleation score turned out to be 0.462.

For EASNCFAIRHFENKFAVETLICIIRRPCNSYVLL, the amyloid nucleation score entry is “inactive”.

In the case of EASNCFAIRHFENKFAVETLICIISLIVLRWEYV, the amyloid nucleation score entry was “inactive”.

EASNCFAIRHFENKFAVETLICIITLLSGWEMCR: the amyloid nucleation score entry is “inactive”.

With EASNCFAIRHFENKFAVETLICIIVFVNFSFVTC, the amyloid nucleation score result is “inactive”.

Turning to EASNCFAIRHFENKFAVETLICIIVTNVCCFERC, the amyloid nucleation score result is “inactive”.

As for EASNCFAIRHFENKFAVETLICIK, the amyloid nucleation score entry was “inactive”.

In turn, EASNCFAIRHFENKFAVETLICIKANCSNGDV showed an amyloid nucleation score of 3.47.

Turning to EASNCFAIRHFENKFAVETLICIKFFVCG, the amyloid nucleation score is 4.53.

Turning to EASNCFAIRHFENKFAVETLICIKGTGTWVSFL, the amyloid nucleation score turned out to be 4.21.

EASNCFAIRHFENKFAVETLICIKGYGFTVTS: the amyloid nucleation score was -0.358.

For EASNCFAIRHFENKFAVETLICIKKVWDHGVVTG, the amyloid nucleation score result is “inactive”.

For the sequence EASNCFAIRHFENKFAVETLICIKLSGMLRVYVG, the amyloid nucleation score entry was “inactive”.

Regarding EASNCFAIRHFENKFAVETLICIKNRGDV, the amyloid nucleation score was 1.89.

With EASNCFAIRHFENKFAVETLICIKQSSGVVGTRL, the amyloid nucleation score result was “inactive”.

Take EASNCFAIRHFENKFAVETLICIKVGMCRAYAGL: the amyloid nucleation score amounted to 2.94.

The data set is the same for the next values; noted with them: random library (experiment): 3.
On to EASNCFAIRHFENKFAVETLICIGDCWKKIWCLF, for which the amyloid nucleation score entry was “inactive”.

The sequence EASNCFAIRHFENKFAVETLICIGI returned an amyloid nucleation score of 1.85.

EASNCFAIRHFENKFAVETLICIGMVCC had an amyloid nucleation score of 3.46.

On to EASNCFAIRHFENKFAVETLICIGRRVLMHVGVR, for which the amyloid nucleation score result is “inactive”.

For EASNCFAIRHFENKFAVETLICIGYCNRSYWLLE, the amyloid nucleation score turned out to be 2.24.

On to EASNCFAIRHFENKFAVETLICIH, for which the amyloid nucleation score result was “inactive”.

As for EASNCFAIRHFENKFAVETLICIHECIFRLYPWM, the amyloid nucleation score entry was “inactive”.

In the case of EASNCFAIRHFENKFAVETLICIHVVC, the amyloid nucleation score result is “inactive”.

As for EASNCFAIRHFENKFAVETLICIINRMFHEMAQA, the amyloid nucleation score entry was “inactive”.

In turn, EASNCFAIRHFENKFAVETLICIKDRGQCMVTIR showed an amyloid nucleation score of 5.71.

EASNCFAIRHFENKFAVETLICIKPGVRRNTSFR registered an amyloid nucleation score of 1.9.

The record behind these values is the supplement of paper PMC12067230.
